# According to PMC4336329 (PLoS ONE, 2015):
# Out of some 310,000 compounds screened, about 2,200 (0.71%) showed an effect of 50% or more. Effects have a minus sign here. The list shows a part of the results.
# Target: human ether-à-go-go-related gene (hERG) potassium channel (human, UniProt Q12809)
# Assay: primary screen, population patch clamp on CHO cells stably expressing hERG
# Chain of human ether-à-go-go-related gene (hERG) potassium channel (Q12809 whole entry, looked up): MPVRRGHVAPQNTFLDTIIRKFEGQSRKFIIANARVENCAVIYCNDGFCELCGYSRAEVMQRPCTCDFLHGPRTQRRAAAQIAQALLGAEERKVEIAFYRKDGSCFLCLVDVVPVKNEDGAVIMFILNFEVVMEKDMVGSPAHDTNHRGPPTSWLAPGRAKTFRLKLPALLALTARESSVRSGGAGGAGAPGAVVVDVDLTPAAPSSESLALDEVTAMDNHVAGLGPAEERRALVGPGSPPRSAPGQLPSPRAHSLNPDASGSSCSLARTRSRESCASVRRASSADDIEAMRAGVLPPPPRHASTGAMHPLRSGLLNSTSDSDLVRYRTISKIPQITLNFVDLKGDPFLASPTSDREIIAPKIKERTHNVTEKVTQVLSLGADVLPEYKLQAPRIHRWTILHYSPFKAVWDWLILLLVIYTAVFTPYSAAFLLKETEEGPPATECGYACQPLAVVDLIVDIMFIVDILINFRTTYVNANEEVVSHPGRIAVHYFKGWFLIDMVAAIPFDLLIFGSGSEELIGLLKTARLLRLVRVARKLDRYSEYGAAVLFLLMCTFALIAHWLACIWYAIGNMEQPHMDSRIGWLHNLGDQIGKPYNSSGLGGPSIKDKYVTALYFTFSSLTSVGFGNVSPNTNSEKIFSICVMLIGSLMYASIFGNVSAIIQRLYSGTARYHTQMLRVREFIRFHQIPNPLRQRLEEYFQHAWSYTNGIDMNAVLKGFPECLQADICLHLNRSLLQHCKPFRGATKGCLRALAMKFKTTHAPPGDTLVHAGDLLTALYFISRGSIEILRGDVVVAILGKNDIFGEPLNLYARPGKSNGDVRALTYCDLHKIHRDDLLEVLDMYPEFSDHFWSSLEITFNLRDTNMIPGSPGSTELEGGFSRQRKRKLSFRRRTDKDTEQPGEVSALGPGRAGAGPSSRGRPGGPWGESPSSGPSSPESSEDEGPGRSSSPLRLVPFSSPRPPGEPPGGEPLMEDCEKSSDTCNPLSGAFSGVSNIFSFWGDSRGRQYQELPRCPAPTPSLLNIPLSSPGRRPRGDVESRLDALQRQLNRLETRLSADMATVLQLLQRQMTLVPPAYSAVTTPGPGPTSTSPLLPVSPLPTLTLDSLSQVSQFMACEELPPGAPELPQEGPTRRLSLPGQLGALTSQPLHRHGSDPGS
row,SMILES,"hERG current change (%, negative = inhibition) at 1uM"
1,O=C(Nc1ccccc1)C1CCCN1C(=O)Nc1ccccc1[N+](=O)[O-] (stereo not drawn),15.2%
2,COC(=O)c1ccccc1NC(=O)COc1ccc2c(c1)OCO2,7.27%
3,CCOC(=O)[C@H]1[C@H]2COc3ccccc3[C@@H]2N2C(=O)c3c(C)cc(C)cc3NC(=O)[C@@]12C,0.144%
4,O=C(NN1CCOCC1)NC12CC3CC(CC(C3)C1)C2,15.2%
5,C#CCNc1ccncc1S(=O)(=O)NC(=O)NC(C)C.O=[N+]([O-])O,1.82%
6,CS(=O)(=O)N(CC(=O)O)c1cc(C(F)(F)F)ccc1Cl,9.34%
7,O=C(NC1CCCCC1)c1sc(N2CCOCC2)nc1-c1ccccc1,4.7%
8,CC(C)[C@H](NC(=O)C1CCN(S(=O)(=O)c2ccccc2)CC1)C(=O)NCc1ccco1,12%
9,CC1=C(C(=O)O)N2C(=O)C(NC(=O)c3nn(C)cc3Cl)C2SC1 (stereo not drawn),11.1%
10,CC(=O)N1CCc2cc(S(=O)(=O)CCC(=O)NCCc3ccc(Cl)cc3)ccc21,5.03%
11,COC(=O)c1ccc(CNC(=O)COC(=O)C2CC3C=CC2C3)cc1 (stereo not drawn),6.97%
12,Cc1ccc(-c2nnc(Nc3ccc4c(c3)nc(C)n4C)c3ccccc23)cc1,9.15%
13,COc1ccc(NC(=O)CCCSc2ccccc2)cc1S(N)(=O)=O,10.4%
14,Cc1nn(CC2CC2)c(=O)n1-c1ccc(F)cc1,11.1%
15,CSc1nc2c(c(=O)[nH]c(=O)n2C)n1Cc1ccccc1Cl,11.7%
16,Cc1[nH]c2ccccc2c1C(=O)/C=C/c1ccccc1,12.4%
17,COc1ccc(C(c2nnnn2C2CCCC2)N2CCC(C)CC2)cc1.Cl (stereo not drawn),10.2%
18,O=C(Cc1cccs1)N1CCN(S(=O)(=O)c2cc(Cl)ccc2Cl)CC1,-4.16%
19,CCOC(=O)N1CCN(C(=O)CSCC(=O)Nc2nc(-c3ccc(-c4ccccc4)cc3)cs2)CC1,12.2%
20,Cc1n[nH]c(=O)c2c(NC(=O)CSc3nnc(-c4ccco4)n3C)oc(C)c12,14%
21,Cc1ccc(C)c(C(=O)COC(=O)C2CCN(c3ccc(C(F)(F)F)cn3)CC2)c1,9.97%
22,CCOc1cccc(C(=O)NC(=S)Nc2ccc3c(c2)OCCO3)c1,8.92%

row,SMILES,"hERG current change (%, negative = inhibition) at 1uM"
1,CCC1=C2CC[C@H]3C(=O)N(CC)C(=O)[C@H]3[C@H]2[C@@]2(Cc3ccccc3)C(=NCCOC)OC(=O)N2C1=O,10.3%
2,Brc1nc(Br)n(Cc2ccccc2)n1,18.9%
3,CNC(=O)c1ccccc1-c1cn(C)c2ccccc2c1=O,11.7%
4,COc1ccccc1C(=O)Nc1nc(-c2cccs2)c(NC(C)=O)s1,11.8%
5,O=c1c2cc(Br)ccc2nc(-c2cccc(Cl)c2)n1O,15.3%
6,O=C(C1CC1)N1CCN(S(=O)(=O)c2ccc3c(c2)OCCO3)CC1,8.98%
7,CN(C)C(CNC(C(=O)Nc1ccc([N+](=O)[O-])cc1Br)c1ccccc1)c1ccccc1 (stereo not drawn),11.9%
8,O=c1[nH]ncc(N/N=C\c2cccs2)c1Cl,10.8%
9,CC1(C)CC(=O)C2=C(C1)Nc1ncnn1C2c1cccs1 (stereo not drawn),9.58%
10,O=C(NCC(c1ccco1)N1CCc2ccccc2C1)c1ccc(Cl)c([N+](=O)[O-])c1 (stereo not drawn),-4.88%
11,O=C(COc1cccc2c1CCNC2=O)NC1CCCCC1,1.78%
12,COc1cccc(OCCCN2CCCCCC2)c1.O=C(O)C(=O)O,-11.5%
13,COc1ccc(Cc2nc(C(=O)NCc3ccccc3OC)cs2)cc1,6.14%
14,Cc1ccc(-c2cc([C@H]3[C@@H]4C=CCC[C@@]4(C)C(=O)N3Cc3ccccc3)ccc2F)cc1,11.5%
15,Cc1c(NC(=O)c2noc3c2CCc2ccccc2-3)c(=O)n(-c2ccccc2)n1C,-43.4%
16,O=C(/C=C/c1ccc(OCc2cccc(Cl)c2)cc1)N1CCOCC1,9.66%
17,N#Cc1ccc2c(c1)NC(=O)C1CCCN21 (stereo not drawn),6.21%
18,CCOc1ccc(C2Nc3ccc4ccccc4c3-c3c2c(=O)oc2ccccc32)cc1 (stereo not drawn),-0.571%
19,COC(=O)[C@@H]1C[C@@]2(O)[C@@H](O)[C@@H](O)[C@@H](O)C[C@H]2N1Cc1ccc(Cl)cc1,15.5%
20,COc1ccc(NC(=O)Cn2cc(S(=O)(=O)Cc3ccccc3)c3ccccc32)c(OC)c1,10.2%
21,C=CCn1c(=NC(=O)c2ccco2)sc2cc(C(=O)OCC)ccc21,3.37%
22,COC(=O)CSc1n[nH]c(-c2cccnc2)n1,5.43%

row,SMILES,"hERG current change (%, negative = inhibition) at 1uM"
1,O=C(/C=C/c1ccco1)c1ccc(NC(=O)C23CC4CC(CC(C4)C2)C3)cc1,7.94%
2,Cc1cccc(N(C(=O)c2snc(C(N)=O)c2N)C(C(=O)NC2CCCC2)c2ccncc2)c1 (stereo not drawn),9.7%
3,O=C(CSC1=NS(=O)(=O)c2cc(F)ccc2N1)Nc1ccc(F)cc1,11.8%
4,O=C(Nc1ccc(Cl)cc1)NN1CC(=O)N(c2cccc(C(F)(F)F)c2)CC1=O,21.4%
5,CC(C)=C1C2C=CC1C(C(=O)Nc1cc(C)ccc1C)C2C(=O)O (stereo not drawn),9.83%
6,CC(=O)Nc1ccc(NC(=O)C(C)OC(=O)COc2ccc(Nc3ccccc3)cc2)cc1 (stereo not drawn),15.6%
7,O=C(COC(=O)c1ccccc1Br)Nc1cc(S(=O)(=O)N2CCOCC2)ccc1N1CCCC1,17.8%
8,COc1ccc(N2CCN(C(=O)C3COc4ccccc4O3)CC2)cc1 (stereo not drawn),0.903%
9,COc1ccccc1C(=O)NC(=O)COC(=O)Cc1n[nH]c(=O)c2ccccc12,3.95%
10,CCc1cccc(CC)c1NC(=O)c1cccc(N)c1,-0.176%
11,Cc1ccc(/C=N/NC(=O)Cn2nnc(N)n2)o1,-0.222%
12,COc1ccc(OCC(=O)N/N=C2\CCc3ccccc32)cc1,1.57%
13,CCCCc1nnc(NC(=O)C2CC(=O)N(Cc3ccccc3)C2)s1 (stereo not drawn),-1.8%
14,O=C(CCCc1ccccc1)NCc1cn2ccsc2n1,4.27%
15,Cc1cc(C)n(CC2CC(=O)N(c3ccc(Cl)cc3)C2=O)n1 (stereo not drawn),11.8%
16,NS(=O)(=O)c1ccc(N2N=C(c3ccccc3)CC2c2ccc(F)cc2)cc1 (stereo not drawn),10.9%
17,O=C(CN1CCN(c2ccc(O)cc2)CC1)Nc1cc(S(=O)(=O)N2CCCC2)ccc1Cl,11%
18,Cn1c(=O)c2cc(S(=O)(=O)NC(C(=O)NCc3ccccn3)c3ccccc3)ccc2n(C)c1=O (stereo not drawn),10.6%
19,NC(=O)CSc1nc2ccccc2c(=O)n1Cc1ccccc1,13.2%
20,CCCCCCCCC1CC(C(=O)Nc2ccccc2)C(=O)O1 (stereo not drawn),10.3%
21,C=CCn1c(SCc2cc(=O)n3cc(C)ccc3n2)nnc1-c1ccc(F)cc1,4.2%
22,Cn1c(=O)c(C(=O)c2ccccc2)c(O)c2ccccc21,11.7%

row,SMILES,"hERG current change (%, negative = inhibition) at 1uM"
1,CCS(=O)(=O)N1CCCC(C(=O)N2CCC3(CC2)OCCO3)C1 (stereo not drawn),8.11%
2,CSC(=S)N(C)C1CCS(=O)(=O)C1 (stereo not drawn),6.92%
3,CCOc1ccccc1N1CCN(C(=O)c2cc3c(C)cc(C)cc3[nH]2)CC1,6.92%
4,O=C(c1ccc([N+](=O)[O-])o1)N1CCN(c2nc3c(F)cc(F)cc3s2)CC1,-35.3%
5,COc1cccc(C2(O)C(=O)Nc3ccccc32)c1 (stereo not drawn),8.86%
6,O=C(Nc1ccccc1)c1ccc(-c2ccccc2)s1,24.6%
7,O=C(C1=C(O)C(=O)N(CCN2CCOCC2)C1c1ccco1)c1cc2ccccc2o1 (stereo not drawn),7.58%
8,COc1ccc(C(C(=O)NCC2CCCO2)N(C(=O)CNC(=O)c2cccs2)c2ccccc2C)cc1OC (stereo not drawn),15.6%
9,COc1ccc(S(=O)(=O)N(C)CC(=O)N2CCOCC2)cc1Cl,14.1%
10,O=C(NNc1ccccn1)c1ccccc1CC[N+](=O)[O-],10.6%
11,CCc1ccc[n+](-c2[nH]c(=O)sc2/C=N/NC([S-])=Nc2ccccc2)c1,3.82%
12,Cc1cc(C(=O)Nc2cccnc2)cs1,-9.74%
13,Cc1ccc(CS(=O)(=O)CCC(=O)N2CCC3(CC2)OCCO3)cc1,9.02%
14,CCCCOc1ccc(S(=O)(=O)Nc2ccc(NC(C)=O)cc2)cc1,-12.7%
15,C=CCSc1nnc(-c2cnn(-c3ccccc3)c2-n2cccc2)n1C,4.76%
16,CCCOc1ccc(C2C(C(=O)c3ccco3)=C(O)C(=O)N2CCN2CCOCC2)cc1OC (stereo not drawn),18.7%
17,CCOC(=O)c1cc(C#N)c(SC(C)C(=O)NC2CCCCC2)nc1C (stereo not drawn),10.5%
18,CC(=O)Oc1cc(OC(C)=O)c2c(C)cc(=O)oc2c1,15%
19,Cc1ccc(CNc2cc(C(=O)O)ccc2C)s1,17.5%
20,O=C(CCC(=O)OCC(=O)c1ccc(Br)cc1)NC1CCCCC1,12.1%
21,CC(=O)Nc1sc2c(c1C(c1cccs1)N1CCOCC1)CCCC2 (stereo not drawn),11.4%
